# Test results published in the supplement of paper PMC11060735.
# Where “and” joins values, the source holds several entries; their conditions need not be identical. Identical values can stand only once. Counter-ions that a name gives are not always drawn. The campaign covered roughly 1,800 compounds. About 50 (3%) showed activity. The list shows a part of the results.
# Test system: mouse p16Ink4a+/- lung fibroblasts (INKBRITE, bleomycin-injured)
# Assay: percentage of GFP+ (p16Ink4a+) fibroblasts among all cells in well; higher = less depletion of p16Ink4a+ cells, active = 20 or less
# Conditions: 1 µM; 3 days
# 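Further: fibroblasts sorted 14 days after bleomycin, GFP+ and GFP− mixed 1:1 in 384-well plates (GFP− as in-well control), imaged after Hoechst and NucView530 staining, reference wells lacked compound.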
row,SMILES,percentage of GFP+
1,CC(C)[C@H](N)C(=O)OCCOCn1cnc2c(O)nc(N)nc21 [Valaciclovir],inactive: 42.1%
2,CC(C)(C)C(=O)OCOP(=O)(COCCn1cnc2c(N)ncnc21)OCOC(=O)C(C)(C)C [Adefovir Dipivoxil],active: 19.4%
3,CCCNC(C)C(=O)Nc1ccccc1C (configuration not stated) [Prilocaine],inactive: 38.4%
4,C[C@]12CC[C@@H]3c4ccc(O)cc4CC[C@H]3[C@@H]1CCC2=O [Estrone],inactive: 43.9%
5,O=NO [Sodium Nitrite],inactive: 52.2%
6,CC1CCc2c(N3CCC(O)CC3)c(F)cc3c(=O)c(C(=O)O)cn1c23 (configuration not stated) [Nadifloxacin],inactive: 30.8%
7,C[N+]1(C)CCC(=C(c2ccccc2)c2ccccc2)CC1 [Diphemanil Methylsulfate],inactive: 44.6%
8,CCCN[C@H]1CCc2nc(N)sc2C1 [Pramipexole],inactive: 53.7%
9,CNC(=O)c1ccccc1Nc1nc(Nc2ccc(N3CCOCC3)cc2OC)ncc1Cl,inactive: 33.8%
10,N#Cc1ccc2[nH]c(O)c(-c3ccc(CN4CCOCC4)cn3)c2c1,inactive: 40.8%
11,CCn1cc(C(=O)O)c(=O)c2ccc(C)nc21 [Nalidixic Acid],inactive: 43.7%
12,CCC(=O)OCC(=O)[C@@]1(OC(=O)CC)[C@@H](C)C[C@H]2[C@@H]3CCC4=CC(=O)C=C[C@]4(C)[C@@]3(Cl)[C@@H](O)C[C@@]21C [Beclomethasone Dipropionate],inactive: 24.3%
13,CN1C(C(=O)Nc2ccccn2)=C(O)c2sc(Cl)cc2S1(=O)=O [Lornoxicam],inactive: 49.7%
14,C[C@@H](O[C@H]1OCCN(Cc2n[nH]c(O)n2)[C@H]1c1ccc(F)cc1)c1cc(C(F)(F)F)cc(C(F)(F)F)c1 [Aprepitant],inactive: 43.6%
15,C[C@H]1C[C@H]2[C@@H]3CCC4=CC(=O)C=C[C@]4(C)[C@@]3(F)[C@@H](O)C[C@]2(C)[C@@]1(O)C(=O)CO [Betamethasone],inactive: 33%
16,Oc1ccc(OCc2ccccc2)cc1 [Monobenzone],inactive: 52.5%
17,Cn1c(=O)c(F)c(Nc2ccc(I)cc2F)c2c(=O)n(C[C@@H](O)CO)cnc21,inactive: 28.4%
18,Cc1cccc(N(C)C(=S)Oc2ccc3ccccc3c2)c1 [Tolnaftate],inactive: 45.1%
19,C[C@H](NCc1ccc(OCc2cccc(F)c2)cc1)C(N)=O [Safinamide],inactive: 47.4%
20,CCCCCCNC(=O)n1cc(F)c(=O)[nH]c1=O [Carmofur],inactive: 35%
21,O=C1NCCc2[nH]c(-c3ccncc3)cc21,inactive: 39.1%
22,C[C@@]1(c2cc(-c3cncnc3)c(F)cc2F)CCSC(N)=N1,inactive: 36.4%
23,Nc1nc(N)c2nc(-c3ccccc3)c(N)nc2n1 [Triamterene],inactive: 46.4%
24,O=C(/C=C/c1ccc(O)cc1)c1ccc(O)cc1O [Isoliquiritigenin],inactive: 45.5%

row,SMILES,percentage of GFP+
1,Cc1[nH]c(/C=C2\C(=O)Nc3ccccc32)c(C)c1CCC(=O)O [Orantinib],inactive: 47.6%
2,COC1CCN(C(=O)c2cc(Cc3nnc(O)c4ccccc34)ccc2F)CC1,inactive: 41.9%
3,COc1cc(OC)c(/C=C/S(=O)(=O)Cc2ccc(OC)c(NCC(=O)O)c2)c(OC)c1 [Rigosertib],inactive: 27.9%
4,C/C(=N\NC(=S)N1CCC1)c1ccccn1,active: 6.13%
5,"Cc1oncc1C(=O)Nc1ccc(C(F)(F)F)cc1 [Lefunamide, Leflunomide]",inactive: 39.1%
6,C[C@@H]1C[C@H]2[C@@H]3CCC4=CC(=O)C=C[C@]4(C)[C@@]3(F)[C@@H](O)C[C@]2(C)[C@@]1(O)C(=O)CO [Dexamethasone],inactive: 30.5%
7,CCC(=O)Nc1cccc(Oc2nc(Nc3ccc(N4CCN(C)CC4)cc3OC)ncc2Cl)c1,inactive: 42.3%
8,COc1cc(OC2CCN(C)CC2)ccc1Nc1ncc2c(n1)n(C1CCCC1)c(=O)n2C,inactive: 44.1%
9,CC(=O)O/N=C1/C(=O)N(Cc2cc(Cl)ccc2Cl)c2ccc(Cl)cc21,inactive: 51.6%
10,CCCc1cc(O)nc(S)n1 [Propylthiouracil],inactive: 36.4%
11,C[C@]12CC[C@@H]3c4ccc(O)cc4C[C@@H](CCCCCCCCCS(=O)CCCC(F)(F)C(F)(F)F)[C@H]3[C@@H]1CC[C@@H]2O (some centres not stated) [Fulvestrant],inactive: 36.9%
12,Cc1ccc(S(=O)(=O)Nc2nc3ccccc3nc2Nc2ccc3nsnc3c2)cc1,inactive: 43.7%
13,O=C(O)c1ccc(-n2nc(-c3ccccc3O)nc2-c2ccccc2O)cc1 [Deferasirox],inactive: 39.3%
14,O=c1[nH]c(=O)n([C@H]2C[C@H](O)[C@@H](CO)O2)cc1C(F)(F)F [Trifluridine],inactive: 46.9%
15,O=C(NC1CCNCC1)c1n[nH]cc1NC(=O)c1c(Cl)cccc1Cl,inactive: 35%
16,CC(=O)O[C@]1(C(C)=O)CC[C@H]2[C@@H]3C=C(Cl)C4=CC(=O)[C@@H]5C[C@@H]5[C@]4(C)[C@H]3CC[C@@]21C [Cyproterone Acetate],inactive: 35%
17,N[C@H]1CN(c2c(F)cc3c(=O)c(C(=O)O)cn([C@@H]4C[C@@H]4F)c3c2Cl)CC12CC2 [Sitafloxacin Hydrate],inactive: 27.4%
18,CN(NC(=O)CC(=O)NN(C)C(=S)c1ccccc1)C(=S)c1ccccc1 [Elesclomol],active: 12%
19,CNC(=O)c1cccc(-c2ccc3c(N4CCOC[C@@H]4C)nc(N4CCOC[C@@H]4C)nc3n2)c1,inactive: 34.7%
20,Sc1ncnc2[nH]cnc12 [Mercaptopurine],inactive: 44.9%
21,Cc1nnc(NS(=O)(=O)c2ccc(N)cc2)s1 [Sulfamethizole],inactive: 44.8%
22,C[C@H]1O[C@H](O[C@H]2[C@H](O)[C@@H](O)[C@@H](O[C@H]3[C@H](O)[C@@H](O)[C@H](O)O[C@@H]3CO)O[C@@H]2CO)[C@H](O)[C@@H](O)[C@@H]1N[C@H]1C=C(CO)[C@@H](O)[C@H](O)[C@H]1O [Acarbose],inactive: 44.8%
23,CN(Cc1ccc(C(C)(C)C)cc1)Cc1cccc2ccccc12 [Butenafine],inactive: 51.2%
24,C#C[C@]1(O)CC[C@H]2[C@@H]3CCc4cc(OC)ccc4[C@H]3CC[C@@]21C [Mestranol],inactive: 38.6%

row,SMILES,percentage of GFP+
1,CCOCC(O)COc1ccc(NC(=O)CC[S+](C)C)cc1 (configuration not stated) [Suplatast Tosylate],inactive: 45.9%
2,CCOC(=O)n1ccn(C)c1=S [Carbimazole],inactive: 43.4%
3,COc1ccc(C(C)=O)c(O)c1 [Paeonol],inactive: 40.3%
4,CC(C)C[C@@H](C=O)NC(=O)[C@H](CC(C)C)NC(=O)[C@H](CC(C)C)NC(=O)OCc1ccccc1,active: 7.69%
5,CCC(=O)c1c(O)cc(O)cc1O [Flopropione],inactive: 40.7%
6,N=C(N)c1ccc(OCCCCCOc2ccc(C(=N)N)cc2)cc1 [Pentamidine],inactive: 54%
7,COc1ccc(CNc2nc(N3CCC[C@H]3CO)ncc2C(=O)NCc2ncccn2)cc1Cl [Avanafil],inactive: 46.5%
8,NC1(C(=O)N[C@@H](CCO)c2ccc(Cl)cc2)CCN(c2ncnc3[nH]ccc23)CC1,inactive: 44.2%
9,O=C(COc1cccc2c(O)nccc12)c1ccccc1,inactive: 50.6%
10,Clc1ccc(COC(Cn2ccnc2)c2ccc(Cl)cc2Cl)c(Cl)c1 (configuration not stated) [Miconazole],inactive: 31.6% and inactive: 35.8%
11,COc1cc2ncnc(Nc3ccc(F)c(Cl)c3)c2cc1NC(=O)/C=C/CN1CCCCC1 [Dacomitinib],inactive: 53.1%
12,Cc1ccc([N+](=O)[O-])cc1S(=O)(=O)N(C)/N=C/c1cnc2ccc(Br)cn12,active: 3.79%
13,CC(C)Cn1cnc2c(N)nc3ccccc3c21 [Imiquimod],inactive: 39.1%
14,O=C(O)C1=CO[C@@H](O[C@@H]2O[C@H](CO)[C@@H](O)[C@H](O)[C@H]2O)[C@@H]2C(CO)=CC[C@H]12 [Geniposidic acid],inactive: 39.1%
15,"COc1ccccc1N1CCN(CC(O)COc2cccc3ccccc23)CC1 (configuration not stated) [Naftopidil Dihydrochloride, Naftopidil]",inactive: 45.6% and inactive: 46.7%
16,CN1CC[C@H](c2c(O)cc(O)c3c(=O)cc(-c4ccccc4Cl)oc23)[C@H](O)C1 [Flavopiridol],active: 4.28%
17,COc1cc2c(Oc3ccc4[nH]c(C)cc4c3F)ncnc2cc1OCCCN1CCCC1,inactive: 41.3%
18,"Nc1nc(O)ncc1F [Flucytosine, 5-fluorocytosine]",inactive: 43.2%
19,O=C1[C@H](Cc2ccc(O)cc2)N2C(=O)CCN(C(=O)NCc3ccccc3)[C@H]2CN1Cc1cccc2ccccc12,inactive: 53.9%
20,Cc1csc(-c2nnc(Nc3ccc(Oc4ncccc4-c4ccnc(N)n4)cc3)c3ccccc23)c1,inactive: 35.6%
21,CNC(=O)c1ccc(N2C(=S)N(c3ccc(C#N)c(C(F)(F)F)c3)C(=O)C2(C)C)cc1F [Enzalutamide],inactive: 37.1%
22,CN1CCC(=C2c3ccccc3CC(=O)c3sccc32)CC1 [Ketotifen],inactive: 48.3%
23,CN1CCN(c2ccc3[nH]c(-c4c(O)nc5cccc(F)c5c4N)nc3c2)CC1 [Dovitinib],inactive: 25.7% and inactive: 32.6%
24,Nc1nc(=O)n([C@@H]2CS[C@H](CO)O2)cc1F [Emtricitabine],inactive: 44%
